Measured values taken from PubChem BioAssay AID463173 (ICCB-Longwood Screening Facility, Harvard Medical School, 2010).
In all, about 52,000 compounds went through this assay and about 4,300 (8.3%) were called active. Cut-off read from the data, not from the text of the source: active = survival mostly below about 52% (no sharp cut-off); inactive = mostly above about 56%. The list shows a part of the results.

system: DeltatarO mutant; test: growth inhibition of S. aureus wild type versus tarO mutant, primary screen, teichoic acid synthesis inhibitors, RN4220, OD600 (AID 463173); conditions: OD600, 18 h, active compounds read low, screened at 18.75 µg/mL (by protocol)

Row | Compound | survival
1 | Cc1ccc2c(=O)c(C(=O)c3cccc(Cl)c3)cn(CC(=O)Nc3ccc4c(c3)OCCO4)c2n1 | inactive: 80%
2 | Cn1cc(S(=O)(=O)c2cccc(Cl)c2)c(=O)c2cc(F)c(N3CCN(c4ccccc4)CC3)cc21 | active: 6%
3 | CC(C)OC(=O)CSc1ncnc2c1cnn2-c1ccccc1 | inactive: 81%
4 | COc1ccc(CCCc2nnc(SCC(=O)Nc3ccc(OC)cc3)o2)cc1 | inactive: 65%
5 | O=C(Nc1cc(F)ccc1F)N1CCC(CN2CCCC2)CC1 | inactive: 84%
6 | CN1C(=O)Cc2cc(S(=O)(=O)CCC(=O)Nc3ccc(F)c(Cl)c3)ccc21 | inactive: 87%
7 | COc1ccc(-c2cc(C(F)(F)F)nc(SCC(=O)NCCc3ccccc3)n2)cc1OC | inactive: 58%
8 | CCc1sc(Nc2cccc(C)c2C)nc1-c1cc2cccc(OC)c2oc1=O | inactive: 94%
9 | COc1cc(OC)cc(-n2c(=O)c3sccc3n(Cc3c(C)cc(C)cc3C)c2=O)c1 | inactive: 178%
10 | COc1cc(CNn2cnnc2)ccc1OCC(=O)NC(C)(C)C | inactive: 69%
11 | Cc1ccc(NC(=O)c2cc(S(=O)(=O)N3CCc4ccccc43)ccc2F)cc1Cl | inactive: 92%
12 | CCOc1ccc(NC(=O)C2CCN(c3nnc(-n4c(C)ccc4C)s3)CC2)cc1 | inactive: 90%
13 | COc1ccc(NC(=O)CSc2nc3ccccc3n2Cc2cccc(OC)c2)cc1 | inactive: 134%
14 | COCCNC(=O)c1cccc(-n2c(C)nc3cccnc32)c1 | inactive: 95%
15 | Cc1nc(-c2cccnc2)sc1CCNS(=O)(=O)c1ccc(F)cc1 | inactive: 75%
16 | Cc1cc(S(=O)(=O)Nc2ccc(-c3ccc(N4CCCCCC4)nn3)cc2)c(C)cc1Cl | inactive: 73%
17 | CCOC(=O)c1ccccc1NC(=O)c1ccncc1 | inactive: 87%
18 | CCN1CCN(c2ncc3c(n2)CCN(Cc2ccc(OC(C)C)cc2)C3)CC1 | inactive: 81%
19 | O=C(NC1CCCCC1)NC1CCN(Cc2nnnn2Cc2ccc3c(c2)OCO3)CC1 | inactive: 88%
20 | Cc1cccc(-c2nc(SCCCOc3ccc(Cl)c(C)c3)n3[nH]c(=O)cc3n2)c1 | inactive: 72%
21 | CCOC(=O)c1ccc(-c2ccc(/C=C(\C#N)C(=O)Nc3ccc(OCC)cc3)o2)cc1 | inactive: 60%
22 | CCc1ccc(-n2c(=O)c3cccnc3n2CC(=O)Nc2cc(F)ccc2F)cc1 | inactive: 90%
23 | CCOC(=O)N1CCc2c(sc(NCc3cc(OC)c(OC)cc3OC)c2C(=O)Nc2ccc(OCC)cc2)C1 | inactive: 89%

Row | Compound | survival
24 | CCN(CC)C(=O)Cn1cc(SCC(=O)Nc2ccccc2C)c2ccccc21 | inactive: 74%
25 | CC(C)N(C(=O)CN1CCN(Cc2ccccc2)CC1)C(C)C | inactive: 62%
26 | CCc1nn2c(=O)cc(COC(=O)c3ccco3)nc2s1 | inactive: 102%
27 | CCOC(=O)C1CCN(S(=O)(=O)c2csc(C(N)=O)c2)CC1 | inactive: 70%
28 | Cc1ccc(-c2cn3c(n2)sc2cc(C(=O)NC(C)C45CC6CC(CC(C6)C4)C5)ccc23)cc1 (configuration not stated) | inactive: 54%
29 | CCCC(=O)Nc1ccc2c(C)cc(C)nc2n1 | inactive: 99%
30 | COc1ccc(N2CC(NC(=O)c3ccc(Br)o3)CC2=O)cc1 (configuration not stated) | inactive: 81%
31 | COC(=O)c1nnn(-c2cccc(C)c2)c1C(=O)OC | inactive: 87%
32 | COc1ccc(C2(CNC(=O)C(=O)Nc3ccc(F)cc3)CCCC2)cc1OC | inactive: 65%
33 | COc1ccc(Cl)cc1-n1nnc(-c2nsc(NC(=O)c3ccccc3Cl)n2)c1C | active: 23%
34 | Cc1ccc(NC(=O)C2CCC(CNS(=O)(=O)c3csc(C(N)=O)c3)CC2)cc1Cl (configuration not stated) | inactive: 77%
35 | CCCSc1nc2sc3c(c2c(=O)n1Cc1ccccc1)CC(C)(CC)OC3 (configuration not stated) | active: 14%
36 | CCc1ccccc1NC(=O)C(=O)NCC(c1cccnc1)N1CCN(c2ccccc2F)CC1 (configuration not stated) | inactive: 57%
37 | CCc1nn(Cc2cc(C)ccc2C)c(=O)c2cc3cc(C)ccc3n12 | inactive: 95%
38 | CC(C)(C)C(=O)Cn1c(C(=O)O)cc2ccccc21 | inactive: 98%
39 | CCOC(=O)c1c(S(=O)(=O)NCC(=O)Nc2cc(C)ccc2C)c(C)n(C)c1C | inactive: 84%
40 | Cc1ccc(NS(=O)(=O)c2ccc3c(c2)CCCN3C(=O)C2CCC2)c(C)c1 | inactive: 85%
41 | N#Cc1cc(O)c(-n2nnc3ccccc32)cc1C#N | inactive: 101%
42 | O=C(N/N=C1/SCC(=O)N1Cc1ccco1)c1ccccc1F | inactive: 105%
43 | COc1ccccc1N1CCN(CCCNC(=O)c2cnn(-c3ccccc3)c2C2CCN(C(=O)OC(C)(C)C)CC2)CC1 | inactive: 85%
44 | Nc1ccnn1C1CCCC1 | inactive: 94%
45 | CC(C)NCC(O)COc1ccccc1 (configuration not stated) | inactive: 109%
46 | Cc1ccccc1C(=O)Nc1nc(-c2nnn(-c3ccc(C(C)C)cc3)c2C)ns1 | inactive: 88%

Row | Compound | survival
47 | O=C(Cn1ncc2c([nH]c3ccccc32)c1=O)NCC1CCN(Cc2ccc(F)cc2)CC1 | inactive: 92%
48 | CCOc1ccccc1CNC(=O)C1CCN(S(=O)(=O)c2ccc3c(ccn3C)c2)CC1 | inactive: 96%
49 | CCOc1ccc(C(=O)NCCS(=O)(=O)N2CCN(c3ccccc3F)CC2)cc1OCC | inactive: 73%
50 | COc1ccc(CN2CCN(c3ncnc4sc5c(c34)CC(C)CC5)CC2)cc1F (configuration not stated) | inactive: 83%
51 | C/C=C/C(=O)N1c2ccccc2C(C)=CC1(C)C | inactive: 110%
52 | O=C(NCc1cccc(F)c1)C1CC(O)CN1C(=O)Nc1ccccc1 (configuration not stated) | inactive: 86%
53 | Cc1ccc(Cl)cc1N1CCN(S(=O)(=O)c2ccc3c(c2)CCCN3C(=O)C2CCC2)CC1 | inactive: 69%
54 | CCCCCn1c(-c2ccc(OC)c(OC)c2)nc2ccccc21 | active: 1%
55 | O=C(NCCc1ccccc1)c1cc(Sc2cccc(Cl)c2)nc2ccccc12 | inactive: 88%
56 | Cc1nn(CC(=O)Nc2ccc3c(c2)oc2ccccc23)c(=O)c2ccccc12 | inactive: 92%
57 | CCCn1nnnc1SCC(=O)c1ccccc1 | inactive: 112%
58 | COc1ccc(NS(=O)(=O)c2ccc3[nH]c4c(c3c2)CCCC4)cc1Cl | inactive: 76%
59 | Cc1ccc(CN2C(=O)c3oc4ccc(C)cc4c(=O)c3C2c2ccc(O)cc2)cc1 (configuration not stated) | inactive: 75%
60 | COc1cc(OC)c(NC(=O)Cn2c(=O)oc3cc(S(=O)(=O)N4CCCC4)ccc32)cc1Cl | inactive: 78%
61 | Cn1ccnc1SCC(=O)Nc1ccccc1 | inactive: 92%
62 | Cc1ccc(C)n1-c1nnc(N2CCCC(C(=O)NCc3cccc(Cl)c3)C2)s1 (configuration not stated) | inactive: 66%
63 | N#CC1=C(N)SC(N)=C(C#N)C1c1ccc(O)cc1 | inactive: 82%
64 | CCc1ccc(-n2c(Cc3ccccc3)nnc2SCc2nc(-c3cccs3)no2)cc1 | inactive: 83%
65 | Cc1ccc(/C=C/c2onc(C)c2S(=O)(=O)N2CCC(C(=O)NCC(C)c3ccccc3)CC2)cc1 (configuration not stated) | inactive: 77%
66 | CC1=C(C(=O)NCc2ccc(Cl)cc2)C2(CCCCC2)OC1=O | inactive: 76%
67 | Cc1nc2ccn(Cc3cccs3)c(=O)c2cc1C(=O)Nc1ccccc1 | inactive: 84%
68 | CCn1cc(S(=O)(=O)c2cccc(Cl)c2)c(=O)c2cc(F)c(N3CCN(c4ccccc4)CC3)cc21 | inactive: 79%
69 | COc1cccc2c(=O)c(C(=O)NCc3cccs3)c[nH]c12 | inactive: 85%

Row | Compound | survival
70 | CCN1C(=O)c2ccccc2Sc2ccc(C(=O)NCCCN(CC(C)C)CC(C)C)cc21 | inactive: 86%
71 | O=C(Cn1c(C(=O)NCc2ccco2)cc2sccc21)c1ccccc1 | inactive: 92%
72 | CN1C(=O)c2ccccc2Sc2ccc(NC(=O)c3ccccc3F)cc21 | inactive: 101%
73 | CCCNC(=O)N1CCC(C(=O)c2cccc(F)c2)CC1 | inactive: 87%
74 | Cc1c(-c2nsc(NC(=O)c3ccccc3)n2)nnn1-c1ccc(C(F)(F)F)c(Cl)c1 | inactive: 86%
75 | CCCCCS(=O)(=O)c1oc(-c2cccs2)nc1S(=O)(=O)c1ccc(C)cc1 | active: 3%
76 | CC(C)(C)OC(=O)N1CCC(c2c(C(=O)N3CCC(c4ccccc4)C3)cnn2-c2cccc(Cl)c2)CC1 (configuration not stated) | inactive: 124%
77 | COc1ccc(C2CC(=O)N(CC(=O)Nc3cc(C)ccc3C)c3ccccc3S2)cc1 (configuration not stated) | inactive: 79%
78 | CCCCN(CCCC)C(=O)c1cc2c(=O)n3cccc(C)c3nc2s1 | active: -13%
79 | Cc1cccc(OCC(=O)N(Cc2cccs2)c2ccc(Cl)cc2)c1C | inactive: 61%
80 | NC(=O)c1ccc(S(N)(=O)=O)o1 | inactive: 93%
81 | COC(=O)c1c(-c2cccs2)csc1NC(=O)COc1ccc(C(C)(C)C)cc1 | inactive: 82%
82 | Cc1ccc(C(=O)Nc2ccc(-c3cn4cccnc4n3)cc2)cc1C | inactive: 51%
83 | COc1ccccc1CNc1ccc(-c2nc(-c3cccnc3)no2)cc1[N+](=O)[O-] | inactive: 78%
84 | CCOc1ccccc1C1C(C(=O)N2CCCCC2)=C(C)Nc2nc3ccccc3n21 (configuration not stated) | inactive: 70%
85 | CCOc1ccccc1NC(=O)c1nn(-c2ccc(C)cc2)c(=O)n(C)c1=O | inactive: 74%
86 | Cc1ccccc1NC(=O)NC1(C(=O)N2CCC(C(N)=O)CC2)CCCCC1 | inactive: 81%
87 | O=C(NCC1CCN(Cc2cccc(Cl)c2)CC1)Nc1cc(Cl)ccc1Cl | active: 17%
88 | COc1cccc(NC(=O)CN2C(=O)c3cccnc3Oc3ccc(Cl)cc32)c1 | inactive: 80%
89 | COc1ccc(N(C)C(=O)CCn2cnc3onc(-c4ccc(F)cc4)c3c2=O)c(OC)c1 | inactive: 92%
90 | CCc1ccc(NC(=O)c2sc(-n3nc(C)c(Cc4ccc(OC)cc4)c3C)nc2C)cc1 | inactive: 100%
91 | O=C(CCC1CCCCC1)Nc1c[nH]c(=O)[nH]c1=O | inactive: 87%
92 | Cc1ccc(NC(=O)NCCc2c(C)nn(C)c2C)cc1Cl | inactive: 109%
